According to PMC5540273 (PLoS ONE, 2017):
Shown are results outside the selection of strong results, which stands elsewhere.

What follows are compounds tested on PRKD3. Conditions: concentration: 1 μM,replicates: in singlicate; n = 1.
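Also: KINOMEscan kinase panel screen.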

SMILES	%Inh [%]
O=C(O)c1ccc(-c2nc(-c3ccc(F)cc3)c(-c3ccncc3)[nH]2)cc1 [SB-202620]	19
O=C1NC(=O)C(c2ccccc2)=C1Nc1ccc(Cl)c(C(=O)O)c1 [SB-390532]	0
O=C1NC(=O)C(c2ccc(Cl)cc2)=C1Nc1cccc(C(=O)O)c1 [SB-360737]	26
O=C1NC(=O)C(c2ccccc2Cl)=C1Nc1ccccc1 [SB-376715]	16
CS(=O)(=O)c1ccccc1-c1nc(-c2ccc(F)cc2)c(-c2ccncc2)[nH]1 [SB-213663]	0
O=C1NC(=O)C(c2ccc(Cl)cc2)=C1Nc1cccc(O)c1 [SB-333613]	0

What follows are compounds tested on PRKG1. Conditions: concentration: 1 μM,replicates: in singlicate; n = 1.

SMILES	%Inh [%]
O=C1NC(=O)C(c2ccc(Cl)cc2)=C1Nc1ccc(O)c(Cl)c1 [SB-405367]	0
O=C1NC(=O)C(c2ccc(Cl)cc2)=C1Nc1ccccc1 [SB-317661]	25
COc1cccc(C2=C(Nc3ccc(SC)cc3)C(=O)NC2=O)c1 [SB-331032]	0
Cc1ccc(C)c(Oc2nccc(-c3c(-c4ccc(F)cc4)ncn3C3CCNCC3)n2)c1.O=C(O)C(F)(F)F.O=C(O)C(F)(F)F.O=C(O)C(F)(F)F [SB-284852]	6
O=C1NC(=O)C(c2ccccc2Cl)=C1Nc1cccc(C(=O)O)c1 [SB-390526]	12
O=C1NC(=O)C(c2ccccc2)=C1Nc1cc(Cl)c(O)c(Cl)c1 [SB-390530]	0
CSc1ccc(NC2=C(c3cccc(Cl)c3)C(=O)NC2=O)cc1 [SB-341528]	0
O=C1NC(=O)c2c1c(-c1ccccc1)cc1[nH]c3ccc(O)cc3c21	2
Cc1cc(C)cc(Oc2nccc(-c3c(-c4ccc(F)cc4)ncn3C3CCNCC3)n2)c1.O=C(O)C(F)(F)F.O=C(O)C(F)(F)F.O=C(O)C(F)(F)F [SB-284851]	1
COc1ccc(C2=C(Nc3cccc(Cl)c3)C(=O)NC2=O)cc1 [SB-326892]	0
O=C(O)c1ccc(-c2nc(-c3ccc(F)cc3)c(-c3ccncc3)[nH]2)cc1 [SB-202620]	0
O=C1NC(=O)C(c2ccccc2)=C1Nc1ccc(Cl)c(C(=O)O)c1 [SB-390532]	0
O=C1NC(=O)C(c2ccc(Cl)cc2)=C1Nc1cccc(C(=O)O)c1 [SB-360737]	1
O=C1NC(=O)C(c2ccccc2Cl)=C1Nc1ccccc1 [SB-376715]	0
CS(=O)(=O)c1ccccc1-c1nc(-c2ccc(F)cc2)c(-c2ccncc2)[nH]1 [SB-213663]	32
O=C1NC(=O)C(c2ccc(Cl)cc2)=C1Nc1cccc(O)c1 [SB-333613]	12

Each compound was assayed on PRKG2. Conditions: concentration: 1 μM,replicates: in singlicate; n = 1.

SMILES	%Inh [%]
O=C1NC(=O)C(c2ccc(Cl)cc2)=C1Nc1ccc(O)c(Cl)c1 [SB-405367]	7
O=C1NC(=O)C(c2ccc(Cl)cc2)=C1Nc1ccccc1 [SB-317661]	0
COc1cccc(C2=C(Nc3ccc(SC)cc3)C(=O)NC2=O)c1 [SB-331032]	0
Cc1ccc(C)c(Oc2nccc(-c3c(-c4ccc(F)cc4)ncn3C3CCNCC3)n2)c1.O=C(O)C(F)(F)F.O=C(O)C(F)(F)F.O=C(O)C(F)(F)F [SB-284852]	24
O=C1NC(=O)C(c2ccccc2Cl)=C1Nc1cccc(C(=O)O)c1 [SB-390526]	0
O=C1NC(=O)C(c2ccccc2)=C1Nc1cc(Cl)c(O)c(Cl)c1 [SB-390530]	0
CSc1ccc(NC2=C(c3cccc(Cl)c3)C(=O)NC2=O)cc1 [SB-341528]	0
O=C1NC(=O)c2c1c(-c1ccccc1)cc1[nH]c3ccc(O)cc3c21	89
Cc1cc(C)cc(Oc2nccc(-c3c(-c4ccc(F)cc4)ncn3C3CCNCC3)n2)c1.O=C(O)C(F)(F)F.O=C(O)C(F)(F)F.O=C(O)C(F)(F)F [SB-284851]	0
COc1ccc(C2=C(Nc3cccc(Cl)c3)C(=O)NC2=O)cc1 [SB-326892]	0
O=C(O)c1ccc(-c2nc(-c3ccc(F)cc3)c(-c3ccncc3)[nH]2)cc1 [SB-202620]	12
O=C1NC(=O)C(c2ccccc2)=C1Nc1ccc(Cl)c(C(=O)O)c1 [SB-390532]	0
O=C1NC(=O)C(c2ccc(Cl)cc2)=C1Nc1cccc(C(=O)O)c1 [SB-360737]	0
O=C1NC(=O)C(c2ccccc2Cl)=C1Nc1ccccc1 [SB-376715]	5
CS(=O)(=O)c1ccccc1-c1nc(-c2ccc(F)cc2)c(-c2ccncc2)[nH]1 [SB-213663]	28
O=C1NC(=O)C(c2ccc(Cl)cc2)=C1Nc1cccc(O)c1 [SB-333613]	18

Each compound was assayed on T1, PRKR. Conditions: concentration: 1 μM,replicates: in singlicate; n = 1.
T1 construct: gene EIF2AK2

SMILES	%Inh [%]
O=C1NC(=O)C(c2ccc(Cl)cc2)=C1Nc1ccc(O)c(Cl)c1 [SB-405367]	15
O=C1NC(=O)C(c2ccc(Cl)cc2)=C1Nc1ccccc1 [SB-317661]	43
COc1cccc(C2=C(Nc3ccc(SC)cc3)C(=O)NC2=O)c1 [SB-331032]	11
Cc1ccc(C)c(Oc2nccc(-c3c(-c4ccc(F)cc4)ncn3C3CCNCC3)n2)c1.O=C(O)C(F)(F)F.O=C(O)C(F)(F)F.O=C(O)C(F)(F)F [SB-284852]	0
O=C1NC(=O)C(c2ccccc2Cl)=C1Nc1cccc(C(=O)O)c1 [SB-390526]	4
O=C1NC(=O)C(c2ccccc2)=C1Nc1cc(Cl)c(O)c(Cl)c1 [SB-390530]	3
CSc1ccc(NC2=C(c3cccc(Cl)c3)C(=O)NC2=O)cc1 [SB-341528]	9
O=C1NC(=O)c2c1c(-c1ccccc1)cc1[nH]c3ccc(O)cc3c21	0
Cc1cc(C)cc(Oc2nccc(-c3c(-c4ccc(F)cc4)ncn3C3CCNCC3)n2)c1.O=C(O)C(F)(F)F.O=C(O)C(F)(F)F.O=C(O)C(F)(F)F [SB-284851]	0
COc1ccc(C2=C(Nc3cccc(Cl)c3)C(=O)NC2=O)cc1 [SB-326892]	0
O=C(O)c1ccc(-c2nc(-c3ccc(F)cc3)c(-c3ccncc3)[nH]2)cc1 [SB-202620]	11
O=C1NC(=O)C(c2ccccc2)=C1Nc1ccc(Cl)c(C(=O)O)c1 [SB-390532]	0
O=C1NC(=O)C(c2ccc(Cl)cc2)=C1Nc1cccc(C(=O)O)c1 [SB-360737]	0
O=C1NC(=O)C(c2ccccc2Cl)=C1Nc1ccccc1 [SB-376715]	26
CS(=O)(=O)c1ccccc1-c1nc(-c2ccc(F)cc2)c(-c2ccncc2)[nH]1 [SB-213663]	1
O=C1NC(=O)C(c2ccc(Cl)cc2)=C1Nc1cccc(O)c1 [SB-333613]	0
